In all, about 50,000 compounds went through this assay and about 800 (1.6%) showed an effect of 50% or more. The list shows a part of the results.
Each molecule was assayed against Bcl-2-like protein 10 (Homo sapiens) (UniProt Q9HD36) (assay: Phenotype converters, Bcl-B/TR3 peptide binding displacement, primary biochemical FP (AID 1240;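 note: 0% = Bcl-B with tracer peptide and DMSO and 100% = tracer peptide lacking Bcl-B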)). Conditions: GST-Bcl-B / FITC-TR3 peptide fluorescence polarization; stronger effect = higher value; compound at 3.75 mg/L.
UniProt Q9HD36, sequence (Q9HD36 whole entry, looked up): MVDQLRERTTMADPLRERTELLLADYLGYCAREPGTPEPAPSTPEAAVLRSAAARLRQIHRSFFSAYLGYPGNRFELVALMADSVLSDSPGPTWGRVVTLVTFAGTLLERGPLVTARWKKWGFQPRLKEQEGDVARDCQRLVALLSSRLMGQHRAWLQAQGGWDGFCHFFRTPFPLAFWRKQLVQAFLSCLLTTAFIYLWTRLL

In order of rising displacement:
1. CCc1cc2c(C)cc(=O)oc2cc1O  -22.5%
2. Cc1cccc(-n2c(C)cc(/C=N/NC(=O)c3ccccn3)c2C)c1  -22.1%
3. CC(C)CN1C(=O)c2ccc(C(=O)NN3C(=O)c4ccccc4C3=O)cc2C1=O  -19.4%
4. CN(C)c1ccc(/C=C(\C#N)C(=O)NCC2CCCO2)cc1 (configuration not stated)  -19.4%
5. COc1ccc(-c2nc(SCC(=O)c3ccccc3)n[nH]2)cc1  -13.8%
6. CCOC(=O)CSc1nnnn1-c1ccccc1F  -13.6%
7. CCOC(=O)C1=NNC(C(=O)c2ccccc2)C1c1ccc(OC)cc1 (configuration not stated)  -12.8%
8. CCOc1ccc(C2/C(=C(\O)c3ccccc3)C(=O)C(=O)N2CCN(C)C)cc1 (configuration not stated)  -11.7%
9. CC(=O)NC1=NN(C(C)=O)C(c2ccccc2F)S1 (configuration not stated)  -11.6%
10. COc1ccc(C2/C(=C(/O)c3ccccc3)C(=O)C(=O)N2c2cc(C(C)(C)C)on2)cc1OC (configuration not stated)  -10.8%
11. CCOC(=O)C1=C(C)N=C2SCCN2C1c1ccccc1 (configuration not stated)  -10.4%
12. CC1(C)Cc2c(sc3nc(SCCOc4ccccc4)n(Cc4ccccc4)c(=O)c23)CO1  -10.2%
13. COc1ccccc1/C=N/N1CCN(Cc2cccc3ccccc23)CC1  -10.2%
14. O=C(NCCN1CCCCC1)c1cc(Cl)ccc1Cl  -9.6%
15. O=S(=O)(NCc1ccc2c(c1)OCO2)c1ccc(Br)cc1Br  -8.7%
16. Cc1ccc(NC(=O)/C(=C\c2ccccc2)NC(=O)c2ccccc2I)cc1  -7.5%
17. CC1=C(C(=O)OCCc2ccccc2)C(c2ccccc2Cl)CC(=O)N1 (configuration not stated)  -7.2%
18. Cc1ccc(S(=O)(=O)N=C2C=CC(=O)C=C2)c(C)c1  -7%
19. CCN1C(=O)/C(=C\c2ccc(OC(C)=O)cc2)SC1=S  -7%
20. CC(C)C1=NN2C(=N)/C(=C/c3ccccc3OCc3ccc(F)cc3)C(=O)N=C2S1  -6.7%
21. CC1=C(C(=O)OCCc2ccccc2)C(c2cccc([N+](=O)[O-])c2)CC(=O)N1 (configuration not stated)  -6.7%
22. O=Cc1ccccc1OC(=O)c1cc2ccccc2oc1=O  -6.4%
23. Cc1ccccc1NC(=O)C1C(c2cccs2)C(C#N)=C(SCC(=O)Nc2ccc(Br)cc2)NC1(C)O (configuration not stated)  -5.9%
24. OC(COc1ccc(C23CC4CC(CC(C4)C2)C3)cc1)CN1CCN(c2ccccn2)CC1 (configuration not stated)  -5.7%
25. COc1cc(OC)cc(C(=O)NNC(=O)c2ccccc2OC)c1  -5.7%
26. COc1cc(NC(=O)/C=C/c2ccc(C(C)C)cc2)c(OC)cc1Cl  -5.4%
27. COc1ccc(N2C(=O)CC(N3CCN(Cc4ccc5c(c4)OCO5)CC3)C2=O)cc1 (configuration not stated)  -5.3%
28. O=C(Nc1sc2c(c1C(=O)N1CCCCC1)CCCC2)c1ccccc1F  -4.7%
29. Cc1ccc2nc(-c3cc(N)ccc3Cl)oc2c1  -4.5%
30. CCOc1ccccc1N(CC(=O)NCCOC)S(=O)(=O)c1ccccc1  -4.5%
31. CCC(=O)N1CCN(c2ccc(C(C)=O)cc2F)CC1  -3.4%
32. C=CCNc1nc(-c2ccncc2)cs1  -3.2%
33. COc1ccc2nc(NS(=O)(=O)c3ccc(Cl)cc3)c(Nc3cccc(NC(C)=O)c3)nc2c1  -2.9%
34. Cc1cc(C)c(N2C(=O)c3ccccc3C2=O)c(C)c1  -2.8%
35. CC(C)COCC1CC2(CC(C)C(=O)CC2=O)C(=O)O1 (configuration not stated)  -2.6%
36. COc1ccc(S(=O)(=O)N(CC(=O)N2CCCC2)c2ccc(C)cc2)cc1OC  -2.4%
37. N#CC1=C(N)C(C#N)(C#N)C(c2cccc(Br)c2)C=C1C1CC1 (configuration not stated)  -1.9%
38. CCn1c2ccccc2c2nnc(SCC(=O)Nc3ccc([N+](=O)[O-])cc3)nc21  -1.5%
39. Cc1c(Cc2ccccc2)sc(NC(=O)c2ccc(-c3ccccc3)cc2)c1C(N)=O  -1.3%
40. CCCCOC(=O)c1ccc(NC(=O)c2cccc(OCCC)c2)cc1  -1.2%
41. COc1ccc(-n2c(C)c([N+](=O)[O-])c3ccc(OC(C)=O)c(COC(C)=O)c32)cc1  -1.1%
42. CCOC(=O)COc1cc(C)c(Cl)cc1[N+](=O)[O-]  -1.1%
43. CC1(C)C(=O)N(Cc2ccc([N+](=O)[O-])cc2)c2ccccc2N1C(=O)c1ccc(F)cc1  -1%
44. Cc1ccc(S(=O)(=O)Oc2ccc(Br)cc2C=C2C(=O)NC(=O)NC2=O)cc1  -1%
45. COc1ccc(OC)c(S(=O)(=O)N2CCC(C)CC2)c1  -0.9%
46. COc1ccc(/C=C(\NC(=O)c2ccccc2)C(=O)N/N=C/c2ccncc2)cc1  -0.2%
47. CCc1ccc(NC(=O)C2CC(=O)N(C3CCCCC3)C2)cc1 (configuration not stated)  -0.2%
48. O=C(COc1cccc(Cl)c1)NCc1ccco1  0%
49. O=C(Nc1ccc(Cl)cc1Cl)c1ccccc1F  0.8%
50. CCOc1ccc2nc(SCC(=O)Nc3ccccc3Oc3ccccc3)sc2c1  1%
51. COc1cc(OC)c(OC)cc1CN1CCN(C2CCC(C)CC2)CC1 (configuration not stated)  1.2%
52. O=C(Nc1c(C(=O)NCc2ccco2)cnn1-c1ccccc1)c1cccc(F)c1  1.4%
53. N/C(=N\OC(=O)c1cccc(Cl)c1)c1ccc(Cl)cc1  1.4%
54. C[n+]1cccc(C(=O)NCCO)c1  1.6%
55. CC(C)(C)NC(=O)c1nn2c(c1Br)NC(c1ccccc1)CC2C(F)(F)F (configuration not stated)  1.7%
56. COc1ccc(O)c(-c2cc(-c3ccc(F)cc3)n[nH]2)c1  1.8%
57. O=C(CSc1nc2ccc(N3C(=O)c4ccccc4C3=O)cc2s1)NCCOc1ccc(Cl)cc1  1.9%
58. N#C/C(=C/c1ccc(Sc2ccccc2)o1)c1nc2ccccc2[nH]1  2.3%
59. COc1ccc(S(=O)(=O)N(CC(=O)N=Nc2c(O)[nH]c3ccccc23)c2cc(C)cc(C)c2)cc1OC  2.5%
60. O=C(Nc1ccc(O)cc1)c1ccc2c(c1)C(=O)N(c1ccccc1-c1ccccc1)C2=O  3%
61. C=CCOc1ccc(/C=C2\SC(=O)NC2=O)cc1OC  3.2%
62. Cc1ccc(-c2nc3ccccc3c(=O)[nH]2)cc1  3.3%
63. C=CCNC(=O)CN(c1ccc(OC)c(Cl)c1)S(=O)(=O)c1ccccc1  3.3%
64. CCOC(=O)C1C2C(=O)N(c3ccc(C)cc3C)C(=O)C12 (configuration not stated)  4.7%
65. COc1ccc2c(c1OC)C(=O)OC2Nc1ccc(C)cc1 (configuration not stated)  5.4%
66. CCOc1ccc(C2Nc3cccc4cccc(c34)N2)cc1OC  5.5%
67. CCOc1ccc(N2C(=O)NC(=O)/C(=C\c3ccc(OCC)c(Cl)c3)C2=O)cc1  5.6%
68. Cc1cc(OCC(=O)Nc2c(C)cccc2C)ccc1Cl  5.8%
69. COc1ccc(Cl)cc1NC(=O)CN(Cc1ccccc1)S(=O)(=O)c1ccccc1  5.9%
70. O=[N+]([O-])c1ccc(OCCN2CCCCC2)cc1  6.5%
71. O=C(Nc1ccc(-c2ccc(NC(=O)c3ccccc3)cc2)cc1)c1ccccc1  6.7%
72. CN(N)c1nc(N2CCCC2)nc(N2CCCC2)n1  7.2%
73. CCOC(=O)c1sc(NC(=O)c2cc3n(n2)C(C(F)(F)F)CC(c2cccs2)N3)c(C(=O)OCC)c1C (configuration not stated)  7.2%
74. O=C(COc1ccc(Br)cc1)Nc1cc(Cl)c(Cl)cc1Cl  7.6%
75. CC(/C=N/NC(=O)C1CC1)c1ccccc1 (configuration not stated)  7.7%
76. CC(NC(=O)C(=O)NCCN1CCN(C(=O)c2ccc([N+](=O)[O-])cc2)CC1)c1ccccc1 (configuration not stated)  8.5%
77. O=C(Nc1ccc2c(c1)OCCO2)c1cccnc1  9.3%
78. CC(=O)Oc1ccc(-c2cccc(C(=O)NCCCO)c2)cc1  9.3%
79. CCOC(=O)N1CCN(C(=O)c2ccc(I)cc2)CC1  9.7%
80. O=C(NC(C(Cl)(Cl)Cl)S(=O)(=O)c1ccccc1)c1ccccc1 (configuration not stated)  9.8%
81. N#C/C(=C\c1ccco1)C(=O)NCc1ccccc1  9.9%
82. O=C(/C=C/c1ccccc1)Nc1ccc(Cl)c([N+](=O)[O-])c1  10.4%
83. COc1ccc2oc(=O)c(C(=O)NCCc3ccccc3)cc2c1  10.6%
84. COC(=O)CN1C(=O)/C(=C/c2ccccn2)SC1=S  10.9%
85. Cn1c2c(c3cc([N+](=O)[O-])ccc31)CCCC2=O  11.9%
86. CN1C(=O)C(=Cc2ccc(O)c([N+](=O)[O-])c2)C(=O)N(C)C1=O  12%
87. COC(=O)C1=C(C)N(CC(C)C)C(=O)/C1=C\c1cccc(OC)c1O  12.3%
88. CCOc1ccc(C(=O)Nc2cc(Cl)cc(Cl)c2)cc1Br  12.9%
89. COc1cc(NC(=O)c2ccc(I)cc2)c(OC)cc1Cl  13.1%
90. O=C(/C=C/c1ccc(Cl)cc1)Nc1cccc2ccccc12  13.7%
91. Cc1ccccc1N1C(=O)c2cccc3c(N(C)CCO)ccc(c23)C1=O  13.9%
92. O=C(Nc1ccc(Nc2ccccc2)cc1)c1cccc2ccccc12  14.1%
93. O=C1CC(c2ccc(Cl)cc2)CC2=C1C(c1ccccc1[N+](=O)[O-])Nc1ccccc1N2 (configuration not stated)  14.1%
94. O=C(NC(=S)Nc1ccc(N2CCOCC2)cc1)c1ccco1  14.6%
95. CCOC(=O)C1=C(O)/C(=C/c2ccc(Br)cc2)SC1=Nc1ccc([N+](=O)[O-])cc1  15%
96. Cc1c(NC(=O)c2ccc(I)o2)cccc1-c1nc2ccccc2s1  15.4%
97. Cc1cc(C)c2oc(-c3cccc(NC(=O)c4ccccc4C)c3)nc2c1  15.5%
98. O=C1/C(=C\c2ccc(C(F)(F)F)cc2)SC(=S)N1c1cccc(Cl)c1  17.1%
99. CCC(=O)N1c2ccc3ccccc3c2C2C=CCC2C1c1ccc(F)cc1 (configuration not stated)  18.7%
100. COC(=O)c1cc(NC(=O)c2ccc(-c3ccc(Cl)cc3)o2)cc(C(=O)OC)c1  20%
101. Cc1ccc(-n2nc3cc(C)c(NC(=O)/C=C\c4ccco4)cc3n2)cc1  20%
102. Cc1ccc(S(=O)(=O)Nc2ccccn2)cc1C  20.4%
103. O=C(NC(=S)Nc1ccc2oc(-c3ccc(-c4ccccc4)cc3)nc2c1)c1ccco1  24.1%
104. O=C1C2C3C=CC(C2C(=O)N1Cc1ccccc1)C1C(=O)N(Cc2ccccc2)C(=O)C31 (configuration not stated)  24.4%
105. CCOC(=O)C1=C(C)N=c2s/c(=C\c3ccccc3Cl)c(=O)n2C1c1ccc(OC)c(OC)c1 (configuration not stated)  106%
106. O=C(N/N=C/c1ccc(Br)c([N+](=O)[O-])c1)c1cccs1  113%
107. COc1cccc(/C=C/c2cc(C(F)(F)F)[nH]c(=O)n2)c1OC  121%

Reference: PubChem BioAssay AID1240 (Sanford-Burnham Center for Chemical Genomics, 2008)
